Measurements from PubChem BioAssay AID1645882 (National Center for Advancing Translational Sciences (NCATS), 2021).
Where “and” joins values, the source holds several entries; their conditions need not be identical. Equal entries are not always repeated. Hit rate of the full screen: of about 16,000 compounds, about 120 (0.75%) were called active. Roughly 4% stayed inconclusive and do not appear here. Calls come from the whole dose curve; as a rule, active = well fitted inhibition curve with a large enough effect; inconclusive = small, poorly fitted or top-dose-only effect; inactive = no such curve, though single readings can be large or run the other way. This is one part of the list. Some structures have more than one record in an assay (separate samples or runs), and their calls can disagree.

Each molecule was assayed against Rap guanine nucleotide exchange factor 3 (Homo sapiens) (UniProt O95398) (assay: Validation qHTS for antagonist of cAMP-regulated guanine nucleotide exchange factor 3 (EPAC1)). Conditions: EPAC1 Rap1B-BODIPY-GDP exchange, fluorescence; series mostly up to 150 µM; activity change, negative = inhibition: at the top concentration.
Procedure, shortened: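 Nucleotide exchange followed as fluorescence loss when BODIPY-GDP leaves Rap1B (480 nm excitation, 540 nm emission), read at 5 min intervals over 30 min. Reaction: 100 nM EPAC1, 250 nM RAP1B-BODIPY-GDP, 50 uM GDP; ATA and DMSO define normalization.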
Note: nearly all actives have a fitted effect of over 75% in size.
Potency is the fitted concentration of half-maximal effect.
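Throughout, for activity change, negative = inhibition: plate controls were DMSO for no effect and ATA control for full effect.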

Sequence of UniProt O95398 (O95398 whole entry, looked up): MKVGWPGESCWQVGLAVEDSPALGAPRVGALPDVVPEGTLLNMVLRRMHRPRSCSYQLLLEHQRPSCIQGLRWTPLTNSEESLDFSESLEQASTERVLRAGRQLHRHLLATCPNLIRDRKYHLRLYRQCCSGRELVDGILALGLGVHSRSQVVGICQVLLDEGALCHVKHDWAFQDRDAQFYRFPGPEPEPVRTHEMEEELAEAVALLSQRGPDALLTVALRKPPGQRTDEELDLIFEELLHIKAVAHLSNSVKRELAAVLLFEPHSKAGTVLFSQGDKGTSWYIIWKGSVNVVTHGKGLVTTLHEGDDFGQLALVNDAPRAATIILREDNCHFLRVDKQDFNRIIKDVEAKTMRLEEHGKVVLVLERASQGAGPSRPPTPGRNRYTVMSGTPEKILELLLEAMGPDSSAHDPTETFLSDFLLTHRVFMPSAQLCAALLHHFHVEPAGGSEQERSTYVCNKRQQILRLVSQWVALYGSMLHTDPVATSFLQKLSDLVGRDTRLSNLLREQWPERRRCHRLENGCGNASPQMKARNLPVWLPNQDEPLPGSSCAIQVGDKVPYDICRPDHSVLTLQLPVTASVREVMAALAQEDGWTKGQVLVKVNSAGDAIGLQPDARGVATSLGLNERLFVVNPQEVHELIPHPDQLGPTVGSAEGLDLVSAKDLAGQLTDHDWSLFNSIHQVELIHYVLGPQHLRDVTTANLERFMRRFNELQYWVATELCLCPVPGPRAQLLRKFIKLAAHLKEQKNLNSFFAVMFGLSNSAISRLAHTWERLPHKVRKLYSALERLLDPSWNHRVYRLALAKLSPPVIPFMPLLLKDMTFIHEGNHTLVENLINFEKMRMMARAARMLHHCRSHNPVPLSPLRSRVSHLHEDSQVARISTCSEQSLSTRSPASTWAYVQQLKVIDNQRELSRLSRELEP

Compound	activity change, negative = inhibition	Potency
FC(F)(F)c1ccccc1-c1cc(NCc2cccs2)ncn1	inactive: -11.2%	
CN1CCC(=C2c3ccccc3C=Cc3ccccc32)CC1	inactive	
COCC(=O)N1CCC[C@@]2(CCN(C(c3ccccc3)c3ccccc3)C2)C1	inactive: 5.13%	
NCC(O)C1CCCCCCC1 (stereo unspecified)	inactive: 2.64% [at 75.8 µM]	
CC(C)c1c(C(=O)N2CCN(CCO)CC2)cnn1-c1nccc(-c2cccs2)n1	inactive: 12.6%	
Cc1noc(C)c1C(=O)N1CCC[C@@]2(CCN(Cc3cc(C(F)(F)F)cc(C(F)(F)F)c3)C2)C1	inactive: -18.9%	
C=C[C@@H](C)N(Cc1ccc(OC)cc1)S(=O)(=O)N(Cc1ccccc1)[C@H](C=C)C(C)C	inactive: 4.35%	
CC1OC(OC2C(CO)OC(OC3C(CO)OC(O)C(O)C3O)C(O)C2O)C(O)C(O)C1NC1C=C(CO)C(O)C(O)C1O (stereo unspecified)	inactive: 6.87%	
COc1ccc2[nH]cc(CCNc3ncnc4ccc(-c5ccccc5OC)cc34)c2c1	inactive: -19%	
COc1cccc(-c2nc(NCCNC(C)=O)c3ccccc3n2)c1	inactive: 2.04%	
COc1ccccc1CNc1ncnc2ccc(-c3cccc(NS(C)(=O)=O)c3)cc12	inactive: -5.16%	
Oc1ccc(/C=C\c2cc(O)cc(O)c2)cc1	inactive: 6.5%	
COc1ccc(CN(C)CCn2cc(C(=O)N3CCSCC3)nn2)cc1C	inactive: 3.76%	
c1cncc(-c2cc(-n3ccnc3)ncn2)c1	inactive: -24.6%	
CNC1CCCN(c2c(F)cc3c(=O)c(C(=O)O)cn(C4CC4)c3c2OC)C1 (stereo unspecified)	inactive: 14.2%	
CC(=O)c1ccc(C(=O)N2CCc3c(cnc(C)c3CNC(=O)c3ccc4c(c3)OCO4)C2)s1	inactive: -5.6%	
CC(CN(C)C)CN1c2ccccc2S(=O)(=O)c2ccccc21 (stereo unspecified)	inactive: 32.1%	
CC(C)CN1CCC(=O)N([C@H](COc2ccccc2)Cc2ccccc2)CC1	inactive: -8.63%	
COc1ccccc1-c1nc(NCc2cnc(C)cn2)c2ccccc2n1	inactive: 12.3%	
COC(=O)CC1C(C)(C)C(OC(C)=O)C2CC3=C4CC(=O)OC(c5ccoc5)[C@]4(C)CCC3[C@@]1(C)C2=O (stereo partly specified)	inactive: -3.44%	
CS(=O)(=O)Nc1cccc(-c2ccc3ncnc(Nc4ccc(F)cc4)c3c2)c1	inactive: 10.5%	

Compound	activity change, negative = inhibition	Potency
COc1ccccc1-c1nc(NCc2cccs2)c2ccccc2n1	inactive: -2.85%	
CC(=O)[C@H]1CCC2C3CC=C4C[C@@H](OS(=O)(=O)O)CC[C@]4(C)C3CC[C@@]21C (stereo partly specified)	inactive: 41.8% [at 75.8 µM]	
O=C1C[C@@H]2c3c(cccc3CN1Cc1ccccc1Br)C[C@@H](O)[C@H]2O	inactive: 13.4%	
COc1ccc(-c2nc3cnc(N4CCOCC4)nc3n(-c3ccccc3)c2=O)cc1	inactive: 9.06%	
CC(C)(C=O)Cc1cc(C(C)(C)C)c(O)c(C(C)(C)C)c1	inactive	
CN(C)c1ccc(/C=C/c2ccnc3ccc(F)cc23)cc1	inactive: 17.4%	
COC(=O)c1c(OCC2CCCN(C)C2)cc(=O)n2c1CCN(Cc1ccc(OC)c(O)c1)CC2 (stereo unspecified)	inactive: 8.72%	
CC(C)(CO)[C@@H](O)C(=O)NCCC(=O)NCCSSCCNC(=O)CCNC(=O)[C@H](O)C(C)(C)CO	inactive: 10.3%	
O=C(Nc1cccc(F)c1)N1CC2(CCN(C(=O)c3cnccn3)CC2)C1	inactive: 9.42%	
O=C(NC[C@@H]1CCCN2CCCC[C@H]12)c1cnn(-c2nccc(-c3cc4ccccc4o3)n2)c1C1CC1	inactive: 7.24%	
COC1=C[C@@H](C)C2CC3OC(=O)C[C@H]4C(C)=C(OC)C(=O)C([C@@]2(C)C1=O)[C@@]34C (stereo partly specified)	inactive: 5.09%	
CO[C@H]1C=CO[C@@]2(C)Oc3c(C)c(O)c4c(O)c(c5c(c4c3C2=O)=NC2(CCN(CC(C)C)CC2)N=5)NC(=O)/C(C)=C\C=C/[C@H](C)[C@H](O)[C@@H](C)[C@@H](O)[C@@H](C)[C@H](OC(C)=O)[C@@H]1C	inactive: -7.39%	
O=C(c1cnccn1)N1CCC2(CC1)CN(c1ccccn1)C2	inactive: 23%	
COc1cccc(C(=O)O[C@H]2[C@H](C)NS(=O)(=O)[C@H]3C[C@@H]4C=C[C@]23O4)c1	inactive: -4.22%	
NNCCc1ccccc1	inactive	
O=C(Oc1ccccc1)N1CCC[C@@]2(CCN(c3ncccn3)C2)C1	inactive: 17.1%	
CC(C)(C)c1ccc(S(=O)(=O)N[C@H]2CC[C@@H](n3cc(C(=O)N4CCCC4)nn3)CC2)cc1	inactive: 7.47%	
CCCCCCCCCCCCCCCC(=O)OC(C)C	inactive: 18.4%	
O=C1C[C@@H]2c3c(cccc3CN1Cc1ccc(F)cc1)C[C@@H](O)[C@H]2O	inactive: 2.35%	
CCNC(=O)NCCCOc1cccc(CN2CCCCC2)c1	inactive: 5.35%	
COc1ccc(-c2ccc(N)[n+](CCCC(=O)O)n2)cc1	inactive: -4.17% [at 75.8 µM]	

Compound	activity change, negative = inhibition	Potency
CN1CCN(c2ncc3nc(-c4cccc(C#N)c4)c(=O)n(CCC#N)c3n2)CC1	inactive: 15.6%	
NC1(C(=O)O)CCCCC1	inactive: 16.8% [at 75.8 µM]	
COC(=O)C[C@H]1c2cc(C(F)(F)F)ccc2S(=O)(=O)N1c1ccc(N(C)C)cc1	inactive: 6.39%	
CC(=O)C1(C)CC2(CC(C)(C)OC2=O)C(=O)O1 (stereo unspecified)	inactive: -4.18%	
COc1ccccc1CNc1ncncc1-c1ccc(N(C)C)cc1	inactive: 1.52%	
COc1ccccc1-c1ccc2ncnc(NCc3cccnc3)c2c1	inactive: 27.6%	
O=c1c(-c2cccs2)nc2cnc(N3CCNCC3)nc2n1-c1ccccc1	inactive: 47.3%	
CC(Cc1cccc(C(F)(F)F)c1)NCCOC(=O)c1ccccc1 (stereo unspecified)	inactive: -15.6%	
Cc1cc(C(=O)O)ccc1[C@H](N)C(=O)O	inactive: 3.69%	
COc1cccc(Cn2c(=O)c(-c3ccccc3)nc3cnc(OC)nc32)c1	inactive: 2.54%	
O=C(/C=C/c1ccc(O)c(O)c1)OC(Cc1ccc(O)c(O)c1)C(=O)O (stereo unspecified)		inactive and active: 100 µM
CCCCC/C=C\C/C=C\C/C=C\C/C=C\CCCCCC(=O)O	inactive: -11% [at 15.3 µM]	
COCCn1c(=O)c(-c2ccc(OC)cc2)nc2cnc(Oc3ccc(OC)cc3)nc21	inactive: 3.42%	
Cc1ccc2c(c1)CN(CCNC(=O)c1n[nH]c3c1CCCC3)CC(C)O2 (stereo unspecified)	inactive: -1.47%	
CC(=O)S[C@@H]1CC2=CC(=O)CC[C@]2(C)[C@H]2CC[C@@]3(C)[C@@H](CC[C@@]34CCC(=O)O4)[C@H]12	inactive: 38%	
CSc1nccc(-c2cc(Cl)c3c(c2)CC(CNC(=O)c2ccc(C)nc2)O3)n1 (stereo unspecified)	inactive: 11.4%	
CN(C)c1ccc(-c2cncnc2NCCc2cnc[nH]2)cc1	inactive: 10.4%	
COc1ccc(Oc2ncc3nc(-c4ccccc4)c(=O)n(C4CC4)c3n2)cc1	inactive: 4.43%	
COc1cccc(OC)c1OCCNC[C@@H]1COc2ccccc2O1	inactive: 8.55%	
